In all, about 310,000 compounds went through this assay and about 2,200 (0.71%) showed an effect of 50% or more. The effect is printed as a negative number. This is one part of the list.

Sequence of human ether-à-go-go-related gene (hERG) potassium channel (Q12809 whole entry, looked up): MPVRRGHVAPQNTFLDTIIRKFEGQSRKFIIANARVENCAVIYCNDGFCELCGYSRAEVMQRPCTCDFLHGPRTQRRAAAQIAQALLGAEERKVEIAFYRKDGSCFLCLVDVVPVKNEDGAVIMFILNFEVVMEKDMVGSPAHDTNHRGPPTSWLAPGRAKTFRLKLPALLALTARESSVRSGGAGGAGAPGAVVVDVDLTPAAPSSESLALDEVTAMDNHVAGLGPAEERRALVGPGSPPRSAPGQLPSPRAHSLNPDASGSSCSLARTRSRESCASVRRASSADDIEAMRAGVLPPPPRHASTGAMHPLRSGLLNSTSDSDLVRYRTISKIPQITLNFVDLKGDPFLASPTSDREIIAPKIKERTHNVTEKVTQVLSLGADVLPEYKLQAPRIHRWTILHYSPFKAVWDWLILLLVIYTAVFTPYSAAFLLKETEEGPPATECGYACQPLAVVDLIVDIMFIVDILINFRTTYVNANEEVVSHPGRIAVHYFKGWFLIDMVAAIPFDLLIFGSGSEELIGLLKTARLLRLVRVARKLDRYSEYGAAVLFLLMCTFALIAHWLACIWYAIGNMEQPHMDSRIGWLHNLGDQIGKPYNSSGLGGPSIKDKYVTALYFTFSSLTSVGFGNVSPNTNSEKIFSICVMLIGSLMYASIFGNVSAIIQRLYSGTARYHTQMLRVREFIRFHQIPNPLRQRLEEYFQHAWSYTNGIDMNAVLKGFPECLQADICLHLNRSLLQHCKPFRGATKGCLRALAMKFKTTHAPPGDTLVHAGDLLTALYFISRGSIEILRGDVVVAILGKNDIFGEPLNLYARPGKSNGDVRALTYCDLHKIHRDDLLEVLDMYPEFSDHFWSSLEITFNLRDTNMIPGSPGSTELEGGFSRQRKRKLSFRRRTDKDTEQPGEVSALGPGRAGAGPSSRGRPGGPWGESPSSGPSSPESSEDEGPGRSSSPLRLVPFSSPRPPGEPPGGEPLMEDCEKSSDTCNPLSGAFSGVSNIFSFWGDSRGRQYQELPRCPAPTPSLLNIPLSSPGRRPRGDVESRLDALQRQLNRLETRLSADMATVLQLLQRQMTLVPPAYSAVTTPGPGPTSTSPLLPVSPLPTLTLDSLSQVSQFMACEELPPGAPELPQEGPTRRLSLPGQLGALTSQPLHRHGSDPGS

The assay concerns the target human ether-à-go-go-related gene (hERG) potassium channel (human, UniProt Q12809). Description: primary screen, population patch clamp on CHO cells stably expressing hERG.
Regarding `COc1ccc(CNC(=O)C2CCN(C(=O)N(C)C)CC2)c(OC)c1`, the “hERG current change (%, negative = inhibition) at 1uM” value was -0.878%.
Take `Cc1nc2ccccn2c1C(=O)N=Nc1c(O)[nH]c2ccccc12`: the “hERG current change (%, negative = inhibition) at 1uM” value was 13.2%.
As to `CCCCOc1ccc(NC(=S)Nc2cc(C)nc(SCCCC)n2)cc1`, the “hERG current change (%, negative = inhibition) at 1uM” value came out at 16.1%.
As to `CCOC(=O)C1=C(C)N(c2ccccc2)C(=O)C1`, the “hERG current change (%, negative = inhibition) at 1uM” value was found to be 8.2%.
Regarding `CC1(c2ccccc2)NC(=O)N(CC(=O)NCCC2=CCCCC2)C1=O` (centres unmarked), the “hERG current change (%, negative = inhibition) at 1uM” value was 18.4%.
In the case of `COc1ccc(N2CC(C(=O)Nc3ccc(S(=O)(=O)N4CCCCC4)cc3)CC2=O)cc1` (centres unmarked), the “hERG current change (%, negative = inhibition) at 1uM” value is 16%.
Turning to `O=C(c1cccnc1)N1CCN(c2c(Cl)cccc2[N+](=O)[O-])CC1`, the “hERG current change (%, negative = inhibition) at 1uM” value is given as -17.9%.
The same measure for `O=c1c[n+]([O-])c2ccccc2n1OCc1ccccn1`: 20.9%.
Regarding `COc1ccc(C2=NOC(C(=O)NCc3ccccc3)C2)cc1` (centres unmarked), the “hERG current change (%, negative = inhibition) at 1uM” value came to 3.71%.
Consider `CCn1nnnc1SCC(=O)Nc1nc2ccccc2s1`, for which the “hERG current change (%, negative = inhibition) at 1uM” value came out at 19.6%.
As for `CCCCOc1ccc(NS(=O)(=O)c2ccc(-n3cnnn3)cc2)cc1`, the “hERG current change (%, negative = inhibition) at 1uM” value was found to be 1.67%.
Regarding `CC(C)(C)Cc1nc(-c2ccc(Cl)cc2)no1`, the “hERG current change (%, negative = inhibition) at 1uM” value came out at 9.77%.
To `CCN(C(=O)c1ccc2c(=O)n3c(nc2c1)CCCCC3)c1ccc(F)cc1` belongs 9.73%; to `CCCCNC(=O)C1(O)c2ccccc2NC(=O)N1c1ccc(Cl)cc1` (centres unmarked), 15.7%; to `CCOc1ccc(/C=N/NC(=O)C(O)c2ccccc2)c(O)c1` (centres unmarked), 15.3%.
In the case of `CCOCCn1c(CN2CCc3ccccc3C2)nc2c1c(=O)n(C)c(=O)n2C`, the “hERG current change (%, negative = inhibition) at 1uM” value is recorded as 6.8%.
Turning to `Cc1ccc(OCc2ccc(C(=O)Nc3ccc(C(N)=O)cc3)o2)c([N+](=O)[O-])c1`, the “hERG current change (%, negative = inhibition) at 1uM” value was 3.6%.
`CC1CCCCC1NC(=O)CSc1nnc(N)s1` (centres unmarked): the “hERG current change (%, negative = inhibition) at 1uM” value is given as -18.4%.
With `COc1ccc(C(=O)C2CCCN(C3CSCCSC3)C2)cc1OC` (centres unmarked), the “hERG current change (%, negative = inhibition) at 1uM” value was determined as 3.17%.
Turning to `COc1ccc(/C=C2\CCn3c2nc2cc(C(=O)O)ccc2c3=O)cc1O`, the “hERG current change (%, negative = inhibition) at 1uM” value is on record as 4.31%.
As for `O=C(NCc1ccccc1)C1(C(F)(F)F)C/C(=C/CCO)CCCO1` (centres unmarked), the “hERG current change (%, negative = inhibition) at 1uM” value is 9.59%.
For the molecule `CS(=O)(=O)N(CC(=O)Nc1ccccc1C(=O)N1CCCC1)c1cccc([N+](=O)[O-])c1`, the “hERG current change (%, negative = inhibition) at 1uM” value is reported as 7.35%.
`COc1ccc2c(c1)C(NS(=O)(=O)OCC(Cl)(Cl)Cl)CCC2` (centres unmarked): the “hERG current change (%, negative = inhibition) at 1uM” value is 4.09%.
As to `CCOc1ccc(NCCC#N)cc1`, the “hERG current change (%, negative = inhibition) at 1uM” value is on record as -6.96%.
Regarding `O=c1[nH]c(NCc2ccccc2)nc2c1CCC2`, the “hERG current change (%, negative = inhibition) at 1uM” value is recorded as 11.2%.
Take `COCCCn1c(=O)c2sccc2n2c(CCCC(=O)N3CCN(c4ccccn4)CC3)nnc12`: the “hERG current change (%, negative = inhibition) at 1uM” value was 10.9%.
For `COc1cc(NS(=O)(=O)N2CCCC2)cc(OC)c1OC`, the “hERG current change (%, negative = inhibition) at 1uM” value was 10.6%.
With `Nc1nnc(SCCN2C(=O)c3ccccc3S2(=O)=O)s1`, the “hERG current change (%, negative = inhibition) at 1uM” value turned out to be 6.7%.
For the molecule `NC(=O)C1CC(=O)N(c2ccc(OCC(=O)Nc3ccccc3F)cc2)C1` (centres unmarked), the “hERG current change (%, negative = inhibition) at 1uM” value was determined as 8.02%.
For `CCn1c(CNC(=O)c2ccc(Cl)cc2)nnc1SCC(=O)N1CCOCC1`, the “hERG current change (%, negative = inhibition) at 1uM” value worked out at 7.08%.
As for `Cc1ccc(CNC(=O)C2CCCN(S(=O)(=O)N3CCC(C)CC3)C2)cc1` (centres unmarked), the “hERG current change (%, negative = inhibition) at 1uM” value turned out to be 15%.
As for `NC(=O)c1cc([N+](=O)[O-])ccc1N1CCN(Cc2ccccc2)CC1`, the “hERG current change (%, negative = inhibition) at 1uM” value is on record as -12.1%.
With `Cc1cccc(N(CC(=O)NC2CCCC2)C(=O)CCCC(=O)Nc2ccccn2)c1`, the “hERG current change (%, negative = inhibition) at 1uM” value stood at 6.08%.
For `CCC1CCCCN1C(=O)CSc1nc2c([nH]c3ccccc32)c(=O)n1C` (centres unmarked), the “hERG current change (%, negative = inhibition) at 1uM” value came to 10.3%.
To `CC(C)Cn1c(N)c(C(=O)COC(=O)c2cc(C(F)(F)F)nc3ccccc23)c(=O)n(C)c1=O` belongs 11%.
With `c1ccc2c(c1)COC(CN1CCCCC1)OC2`, the “hERG current change (%, negative = inhibition) at 1uM” value was determined as 4.39%.
Turning to `CC(=O)N(c1ccc(C)cc1)C1C=CS(=O)(=O)C1` (centres unmarked), the “hERG current change (%, negative = inhibition) at 1uM” value is reported as 6.55%.
To `CC(=O)Nc1ccc(S(=O)(=O)N2CCC(C(=O)Nc3nccs3)CC2)cc1` belongs 15.9%; to `CCc1ccc(/C=N/NC(=O)Cc2ccc(OC)c(OC)c2)s1`, 14.4%; to `COc1cccc(C(Nc2ccccn2)c2oc(CO)cc(=O)c2O)c1` (centres unmarked), 12.4%.
Consider `CCC(=O)Nc1ccc(C(=O)n2ccc(C)n2)cc1`, for which the “hERG current change (%, negative = inhibition) at 1uM” value was 11.1%.
Turning to `O=C(COc1ccc(F)cc1Cl)NC1CCCCCC1`, the “hERG current change (%, negative = inhibition) at 1uM” value was 6.08%.
Turning to `COc1ccc(-n2ncc3c2CC(C)(C)CC3NC(=O)c2c(C)cc(=O)oc2C)cc1` (centres unmarked), the “hERG current change (%, negative = inhibition) at 1uM” value is 10.8%.
For `N#Cc1ccc(C(=O)OCC(=O)Nc2ccc(S(N)(=O)=O)cc2)cc1`, the “hERG current change (%, negative = inhibition) at 1uM” value is 9.84%.
Regarding `COC(=O)N/N=C1\CCCc2ccccc21`, the “hERG current change (%, negative = inhibition) at 1uM” value was found to be 12.3%.
Consider `O=C1CC(Cc2ccc(Cl)cc2)C(=O)N1c1cc(Cl)ccn1` (centres unmarked), for which the “hERG current change (%, negative = inhibition) at 1uM” value is reported as -10.2%.
In the case of `CCOC(=O)c1cc(-c2ccccc2)sc1NC(=O)C(C)N1C(=O)NC(C)(c2ccc(Cl)cc2)C1=O` (centres unmarked), the “hERG current change (%, negative = inhibition) at 1uM” value came to 6.49%.
The same measure for `COc1ccc(NC(=O)CCCc2ccccc2)cc1OC`: 15.6%.
Regarding `C=CCOc1cccc(C(=O)/C=C2/C(=O)Nc3ccccc32)c1`, the “hERG current change (%, negative = inhibition) at 1uM” value is given as 11.5%.
On to `O=C(COC(=O)c1cc(S(=O)(=O)N2CCOCC2)ccc1O)Nc1cc(S(=O)(=O)N2CCCC2)ccc1Cl`, for which the “hERG current change (%, negative = inhibition) at 1uM” value is on record as 9.18%.
For the molecule `COC(=O)C1CC(=O)c2ccsc2C1` (centres unmarked), the “hERG current change (%, negative = inhibition) at 1uM” value is 1.75%.
As for `CSCCC(NC(=O)c1ccccc1Cl)C(=O)Nc1cccc(S(=O)(=O)N2CCCC2)c1` (centres unmarked), the “hERG current change (%, negative = inhibition) at 1uM” value came to 13.4%.
`COc1cccc(CNC2CCCCCCC2)c1OC`: the “hERG current change (%, negative = inhibition) at 1uM” value stood at 14.7%.
For the molecule `Cc1ccc(NC(=O)C(OC(=O)c2ccccc2Cl)c2ccccc2)cc1Cl` (centres unmarked), the “hERG current change (%, negative = inhibition) at 1uM” value turned out to be 16.1%.
With `COc1ccc(CNC(=O)CN(C)S(=O)(=O)c2ccc(Br)s2)cc1`, the “hERG current change (%, negative = inhibition) at 1uM” value was determined as 1.1%.
In the case of `Cc1cc(NC(=O)Nc2cccc(C)c2C)no1`, the “hERG current change (%, negative = inhibition) at 1uM” value is listed as 18.6%.
With `CCCCCCCNC(=O)CN1N=C(c2ccc(C)cc2)CCC1=O`, the “hERG current change (%, negative = inhibition) at 1uM” value was -14.4%.
As to `CC(Sc1ncccn1)C(=O)NC1CCCC1` (centres unmarked), the “hERG current change (%, negative = inhibition) at 1uM” value is recorded as 8.95%.
For `O=C(CCC1CCCN(C(=O)c2cc3ccccc3o2)C1)NCc1ccc(F)c(F)c1` (centres unmarked), the “hERG current change (%, negative = inhibition) at 1uM” value is recorded as 5.34%.

The record behind these values is paper PMC4336329 (PLoS ONE, 2015).
